The other results are listed elsewhere or left out. The list includes weakly bound sequences.

The source of these data is article PMC4242493.

In the experiment the target is MaxL homodimer (UniProt P61244). In words: universal protein-binding microarray (PBM). The following applies: PBS-based mixture, 10 nM His-tagged protein dimer, 2% milk, 200 ng/uL BSA, 50 ng/uL salmon testes DNA, 0.02% TX-100; detection with Alexa 488 anti-His …; high values mean tight binding; most listed sequences are background and not binding sites; double strand, one strand shown.
UniProt P61244, sequence (P61244 whole entry): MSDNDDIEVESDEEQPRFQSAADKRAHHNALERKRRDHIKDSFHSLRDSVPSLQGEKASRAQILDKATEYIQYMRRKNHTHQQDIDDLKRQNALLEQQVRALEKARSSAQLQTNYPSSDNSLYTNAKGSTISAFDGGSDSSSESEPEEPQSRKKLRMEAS
With AGTCACAG, the binding signal (normalized occupancy) was 0.0732. With AACGGAGG, the binding signal (normalized occupancy) worked out at 0.0699. With AAAGCAAG the figure was 0.0736; with CAAGCCCA, 0.0752. With TGAAATAA the figure was 0.0855; with AAACACTG, 0.0755; with ATCTATTA, 0.0771. To AAGGGCCA belongs 0.0716; to CTGGACAA, 0.0742; to ATACTTTC, 0.0743. Regarding CCAGGTTC, the binding signal (normalized occupancy) was 0.0694. With GGCCACAC the figure was 0.0814; with CATGGGCA, 0.0855. To ACGAGCCG belongs 0.0732.

Turning to AAATAATC, the binding signal (normalized occupancy) amounted to 0.0702. Turning to ATGGCGTA, the binding signal (normalized occupancy) turned out to be 0.0819. To ACCGGATC belongs 0.077; to CATAGCGA, 0.0712.

As for CGCCGCAG, the binding signal (normalized occupancy) was 0.0695. To GACGTCTA belongs 0.0676; to CAGAGCGC, 0.0678. To GGCTTTAC belongs 0.0682. To ATTGCTGG belongs 0.0736; to CACCCAAG, 0.0768; to AACTAGGA, 0.0703. As to CGAGCATA, the binding signal (normalized occupancy) stood at 0.0801.

For the sequence ACGCACAA, the binding signal (normalized occupancy) was 0.0775. To CGTGAGGC belongs 0.0793; to AGTATACG, 0.0759; to GTATGATA, 0.0877. With AGTCAGAA the figure was 0.0697; with AAGCAGAT, 0.075. To CCTGAGAG belongs 0.0683; to AACCGCTT, 0.0681. Consider AAATTGTC, for which the binding signal (normalized occupancy) is 0.0726. With CCGTCTAC the figure was 0.0743; with GGTTAACC, 0.0626; with GTTGCGGA, 0.0704. To CCCGTCGC belongs 0.0748.

Consider CTTGTTCA, for which the binding signal (normalized occupancy) came out at 0.0802. For AACATTAG, the binding signal (normalized occupancy) was found to be 0.084. To ATTAGACC belongs 0.0748. With CCTCGGGA the figure was 0.0708; with CGAGTTTC, 0.0741.

As for GATTACCC, the binding signal (normalized occupancy) amounted to 0.0775. Take ACGAGGGA: the binding signal (normalized occupancy) came out at 0.0859.

For the sequence AGGTCTAG, the binding signal (normalized occupancy) was determined as 0.0748. To AGCAGGAT belongs 0.0756. AACTTAGA: the binding signal (normalized occupancy) came to 0.0798.

As to CAGACGCG, the binding signal (normalized occupancy) was determined as 0.0719. For the sequence GTGTATAA, the binding signal (normalized occupancy) worked out at 0.0894. To ATATCCCG belongs 0.0823; to GATGTAGC, 0.0756. As to CCACGGCG, the binding signal (normalized occupancy) is 0.0744. To ATTTAGAA belongs 0.0725; to GTGACCTA, 0.0721; to CCATAAAG, 0.0766. With CCGCATCC the figure was 0.0787; with CGTGAGGA, 0.0851. With GATGAAGA the figure was 0.0781; with CGGGCGTC, 0.0677. Take CATTGGCA: the binding signal (normalized occupancy) was 0.0773. Regarding GCCCCTAC, the binding signal (normalized occupancy) was 0.0783. To AGCGCTAG belongs 0.0678; to CTGGATTA, 0.0761. Consider ATAATTGC, for which the binding signal (normalized occupancy) is 0.0766.

Turning to TATCCGGA, the binding signal (normalized occupancy) is 0.0736.

With CGTTTAAG, the binding signal (normalized occupancy) is 0.071.

As to CATAGTGG, the binding signal (normalized occupancy) stood at 0.0803. With CAAGCTCA the figure was 0.0677. To ATCTCGAA belongs 0.0761; to CGTAAGGA, 0.0707. To TATTATGA belongs 0.0862; to AGATGAAA, 0.0835; to GCGTACCA, 0.0747. Turning to CACGGTAA, the binding signal (normalized occupancy) stood at 0.077. To CTACCAAA belongs 0.0708; to CTTTATTA, 0.0798.

With ACGTTACA, the binding signal (normalized occupancy) stood at 0.0874. With CTATCTCA the figure was 0.0746. With CAACGACA the figure was 0.0783.

Consider CACTCAAA, for which the binding signal (normalized occupancy) is 0.0802.

Regarding AAATCAAT, the binding signal (normalized occupancy) turned out to be 0.0758. To ATATTAAG belongs 0.0782; to AACATGCA, 0.0927; to TGCGATAA, 0.0736. With CTTACTTA the figure was 0.0782. To CTCGGATA belongs 0.0706; to TCCGTAAA, 0.0698. Turning to ACACACGC, the binding signal (normalized occupancy) is 0.103.

Consider GATATGGA, for which the binding signal (normalized occupancy) was found to be 0.084.

For ATGTCGTC, the binding signal (normalized occupancy) was found to be 0.0814. For the sequence CTCTTCCA, the binding signal (normalized occupancy) came out at 0.0726. As for CTATGTGC, the binding signal (normalized occupancy) was determined as 0.0816. In the case of GACAAGCA, the binding signal (normalized occupancy) worked out at 0.0747. To CTTCCTGC belongs 0.0718; to ACCATTGA, 0.0755; to AGGGAAAT, 0.0833. On to TATTGACA, for which the binding signal (normalized occupancy) was 0.0824. AGCAGTGG: the binding signal (normalized occupancy) came out at 0.0727. With ACATCCTG the figure was 0.084.

For the sequence TAGTAGAA, the binding signal (normalized occupancy) is 0.0761. For the sequence GGGCCCAC, the binding signal (normalized occupancy) was 0.0708. With CTACAAAG the figure was 0.0689; with ACTTATCG, 0.0741; with ACTCCCCG, 0.0782. As for GCGACCAC, the binding signal (normalized occupancy) was 0.0804. To CCCGTTTA belongs 0.0757; to ATGAGCCC, 0.0757. With GGGAAGGA the figure was 0.0751; with ACTTTGGG, 0.0723. With AGGCGGTC the figure was 0.0748; with TCATCCGA, 0.0783. As to CCGCTTAG, the binding signal (normalized occupancy) amounted to 0.0708. Take CAACTACC: the binding signal (normalized occupancy) was 0.0747. With CTCAGTCC the figure was 0.0695; with CCGCCAAC, 0.0712; with ACCCAAAT, 0.078. Regarding ATTGTAGG, the binding signal (normalized occupancy) was 0.0783. With AAGGTCAA the figure was 0.0761; with ATGCGGGG, 0.0853; with CATCGGGA, 0.0724. With AGCCGCTG the figure was 0.0655; with GGCCTAGA, 0.0747.

On to GAGATAGC, for which the binding signal (normalized occupancy) came to 0.0772. With TGGCGAAA the figure was 0.0783. Take CTTAAGGA: the binding signal (normalized occupancy) was found to be 0.072. With GTTTGAGA, the binding signal (normalized occupancy) worked out at 0.0749. With AGTCGCAG the figure was 0.0648; with AGACCCAT, 0.078. With CCTAAAGG the figure was 0.0662; with AGTATTAC, 0.0782. To GGCTAGTA belongs 0.0703; to ACACTCGC, 0.0776; to AGTTCAGG, 0.0784. For the sequence AGGTCCGC, the binding signal (normalized occupancy) turned out to be 0.0706.

ACCCCACG: the binding signal (normalized occupancy) was found to be 0.0905. With TCTTCACA, the binding signal (normalized occupancy) turned out to be 0.077. To TAAGCAGA belongs 0.0747. To ATAATTGG belongs 0.0741; to TACCGAAA, 0.072; to GTAGATTA, 0.0766. CTACTGCA: the binding signal (normalized occupancy) turned out to be 0.0732. With AGCCATAT the figure was 0.0877.

For GACTGCCA, the binding signal (normalized occupancy) was 0.0784. To CGACCATC belongs 0.0749; to ACTCGTCC, 0.0706; to CAGTCAGA, 0.0692.

With CACCTCGA, the binding signal (normalized occupancy) was 0.0713.

Take AAACTCCC: the binding signal (normalized occupancy) is 0.073. Turning to GAATGAAC, the binding signal (normalized occupancy) was 0.0733. To ACAGTCCA belongs 0.0763; to GGAGAAGA, 0.0765. To CTATAGAA belongs 0.0788; to CCTCTTAG, 0.0678. With TGCGACAA the figure was 0.0767. As to CCCGTTAG, the binding signal (normalized occupancy) turned out to be 0.0731. Regarding CTTTCTTC, the binding signal (normalized occupancy) worked out at 0.0663. With GAAGCGAC the figure was 0.0698; with ATTGTCGG, 0.0769. Turning to AAAAGATA, the binding signal (normalized occupancy) is 0.0767. With GCACCGCC the figure was 0.0692; with AAAAATTC, 0.0788; with AGAAGGCG, 0.071. To ATACAACC belongs 0.0773. To AACTAACA belongs 0.0814; to ATGGCAAT, 0.0843. Turning to AAAGTGCG, the binding signal (normalized occupancy) came to 0.0712. Consider AGAGTTAA, for which the binding signal (normalized occupancy) was 0.0737. Regarding GCACCGAC, the binding signal (normalized occupancy) came out at 0.0725. To CACGGATA belongs 0.0831; to AGAATTCC, 0.0763.
